The values that follow come from article PMC4336329 (PLoS ONE, 2015).

About 2,200 (0.71%) of roughly 310,000 compounds showed an effect of 50% or more. Effects have a minus sign here. Some of the results follow.

Chain of human ether-à-go-go-related gene (hERG) potassium channel (Q12809 whole entry, looked up): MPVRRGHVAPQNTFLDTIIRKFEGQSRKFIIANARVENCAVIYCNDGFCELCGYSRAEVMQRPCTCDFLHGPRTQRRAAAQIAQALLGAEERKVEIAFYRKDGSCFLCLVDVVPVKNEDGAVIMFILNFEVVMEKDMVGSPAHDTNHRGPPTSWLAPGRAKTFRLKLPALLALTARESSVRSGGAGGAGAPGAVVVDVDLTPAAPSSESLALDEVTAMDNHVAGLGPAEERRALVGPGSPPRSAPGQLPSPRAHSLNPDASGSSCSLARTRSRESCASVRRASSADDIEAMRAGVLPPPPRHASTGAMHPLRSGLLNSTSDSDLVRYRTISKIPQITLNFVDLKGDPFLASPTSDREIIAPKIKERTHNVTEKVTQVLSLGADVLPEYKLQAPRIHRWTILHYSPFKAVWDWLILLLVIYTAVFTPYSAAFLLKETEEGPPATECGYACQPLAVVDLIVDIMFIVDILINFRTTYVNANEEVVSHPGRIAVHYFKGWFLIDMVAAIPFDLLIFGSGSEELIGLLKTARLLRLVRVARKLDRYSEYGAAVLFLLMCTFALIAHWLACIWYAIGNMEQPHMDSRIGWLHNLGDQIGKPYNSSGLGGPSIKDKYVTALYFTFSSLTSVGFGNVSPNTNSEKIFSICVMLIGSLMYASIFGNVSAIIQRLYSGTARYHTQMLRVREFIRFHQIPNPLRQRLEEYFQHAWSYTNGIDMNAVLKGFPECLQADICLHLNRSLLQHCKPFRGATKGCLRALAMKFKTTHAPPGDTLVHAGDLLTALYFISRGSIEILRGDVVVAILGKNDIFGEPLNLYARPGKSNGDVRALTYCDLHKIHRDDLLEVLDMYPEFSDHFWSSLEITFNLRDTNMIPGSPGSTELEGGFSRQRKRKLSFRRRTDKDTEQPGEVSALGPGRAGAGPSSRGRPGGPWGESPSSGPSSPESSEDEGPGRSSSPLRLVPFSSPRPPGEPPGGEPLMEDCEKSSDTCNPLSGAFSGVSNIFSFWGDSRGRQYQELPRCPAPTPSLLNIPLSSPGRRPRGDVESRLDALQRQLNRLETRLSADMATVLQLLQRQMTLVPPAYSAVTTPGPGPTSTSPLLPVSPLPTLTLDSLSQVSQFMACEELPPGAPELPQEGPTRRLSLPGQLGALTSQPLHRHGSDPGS

This experiment has as its target human ether-à-go-go-related gene (hERG) potassium channel (human, UniProt Q12809). The experiment in a line: primary screen, population patch clamp on CHO cells stably expressing hERG.
For `CN1C(=O)NC(c2cccc(O)c2)C(C(=O)c2cccs2)C1(O)C(F)(F)F` (centres unmarked), the “hERG current change (%, negative = inhibition) at 1uM” value is 15.4%. Take `O=C(Nc1ccc(F)cc1F)Nc1csc2ccccc12`: the “hERG current change (%, negative = inhibition) at 1uM” value turned out to be 12.6%. For `O=C(Nc1ccnc(-c2cccnc2)n1)c1cccs1` the value was -8.54%; for `COc1ccc(NC(=O)C2C3C=CC4(O3)C2C(=O)N(CCN2CCCCC2C)C4C(=O)NC2CCCC(C)C2C)cc1` (centres unmarked), 5.26%; for `Nc1ccc(S(=O)(=O)[O-])c[nH+]1`, 6.57%. To `O=C(OCC(=O)N1CCCCC1)c1cc2ccccc2cc1O` belongs 8.26%; to `O=C(Cc1ccccc1)Nc1cccc(NC(=O)c2ccccc2)c1`, 15.4%. To `CN1CCN(C(=O)/C(=C/c2cn(S(=O)(=O)N(C)C)c3ccccc23)NC(=O)c2ccccc2Cl)CC1` belongs 14.3%; to `O=C(CCNS(=O)(=O)c1ccccc1C(F)(F)F)NCCCSc1ccccc1`, -2.39%; to `CCOC(=O)c1ccc(CNC(=O)C(Cc2c[nH]c3ccccc23)NC(C)=O)o1` (centres unmarked), -6.39%. On to `CCC(C)NC(=O)c1oc2ccc(S(=O)(=O)N3CCC4(CC3)OCCO4)cc2c1C` (centres unmarked), for which the “hERG current change (%, negative = inhibition) at 1uM” value worked out at 9.01%. For `CC1CCOC(c2coc3ccccc3c2=O)O1` (centres unmarked), the “hERG current change (%, negative = inhibition) at 1uM” value was determined as 6.57%.

On to `CCc1cccc(NC(=O)C2CCCN(S(=O)(=O)c3ccc4[nH]c(=O)ccc4c3)C2)c1` (centres unmarked), for which the “hERG current change (%, negative = inhibition) at 1uM” value is recorded as -0.861%. For `CC(C)(C)c1cc(NS(=O)(=O)c2ccc3c(c2)OCCO3)on1` the value was 12.4%; for `CCOC(=O)CNC(=O)CSc1nc2cccnc2n1CC`, 2.76%; for `O=C(O)c1ccc(N=Cc2c(O)ccc3oc4c(c23)CCCC4)cc1`, 9.7%. For `Cc1ccc(N(C(C)C(=O)Nc2ccc(S(=O)(=O)N3CCOCC3)cc2)S(C)(=O)=O)cc1` (centres unmarked) the value was 6.43%; for `Cc1cc2oc(=O)cc(CN3CCOCC3)c2c(C)c1Cl`, 0.624%. Consider `CCc1ccc(C(=O)NNC(=O)c2cc(S(=O)(=O)N(C)C)ccc2N2CCCC2)cc1`, for which the “hERG current change (%, negative = inhibition) at 1uM” value came out at 3.17%. To `CC1CN(C(=O)c2scc3c2OCCO3)CC(C)O1` (centres unmarked) belongs 15.6%.

`CN(Cc1cccs1)C(=O)C1CC(=O)N(Cc2ccccc2)C1` (centres unmarked): the “hERG current change (%, negative = inhibition) at 1uM” value is given as 8.49%. For `Cc1ccc2nc(SCC(=O)N(CC(C)C)c3c(N)n(Cc4ccccc4)c(=O)[nH]c3=O)[nH]c2c1` the value was 13.2%; for `CCN(CC)c1ccc(O)c(C=Nc2ccc(C)c(C)c2)c1`, 10.8%; for `COc1cccc(OCC(O)CN2CCN(CCO)CC2)c1.Cl` (centres unmarked), -6.85%. For `O=C(NCCCNC(=O)c1ccc(Cl)cc1Cl)c1ccccn1` the value was 10.9%; for `COc1ccccc1-n1c(SCC(=O)c2ccc(O)cc2O)nc2cc([N+](=O)[O-])ccc21`, 19.1%. For `CCn1nc(C(=O)OCC(=O)Nc2nc(-c3ccc(OC)cc3)cs2)c2ccccc2c1=O` the value was 15.7%; for `CC(C)CC(=O)Nc1ncnc2c1C(=O)CC(C)(C)C2`, 9.63%. Regarding `Cc1ccc(NS(=O)(=O)c2ccc3[nH]c(=O)oc3c2)cc1Cl`, the “hERG current change (%, negative = inhibition) at 1uM” value is recorded as 8.36%. For `CCNS(=O)(=O)c1ccc(CCC(=O)N2CCN(Cc3ccccc3)CC2)cc1` the value was -1.42%; for `OCCOCCn1c(C(CO)Nc2nc(-c3ccc(F)cc3)cs2)nc2ccccc21` (centres unmarked), -3.44%; for `COc1ccc2oc(C(=O)N(C)CCOc3ccc(Cl)cc3)c(C)c2c1`, -7.18%. Turning to `CCOC(=O)c1cncc(C(=O)O)c1`, the “hERG current change (%, negative = inhibition) at 1uM” value worked out at 11.9%. Turning to `Cl.O=C(NCCCN1CCOCC1)c1c(O)c2ccccc2[nH]c1=O`, the “hERG current change (%, negative = inhibition) at 1uM” value is given as -12.5%.

Regarding `COc1ccc(S(=O)(=O)Nc2ccc3cn[nH]c3c2)cc1[N+](=O)[O-]`, the “hERG current change (%, negative = inhibition) at 1uM” value is listed as 7.09%. As for `CCCn1c2ccc(C)cc2c2n[nH]c(=S)nc21`, the “hERG current change (%, negative = inhibition) at 1uM” value amounted to 15.3%. In the case of `Cc1ccc(S(=O)(=O)c2cc3ccccc3oc2=O)cc1`, the “hERG current change (%, negative = inhibition) at 1uM” value is on record as 8.8%. On to `COc1ccc(NC(=O)Nc2ccc(N3CCCC3=O)cc2)cc1OC`, for which the “hERG current change (%, negative = inhibition) at 1uM” value was found to be 7.67%. To `CC(=O)Oc1ccc(C(=O)Nc2cc(C)ccc2NC(=O)COc2ccccc2)cc1` belongs 15.2%; to `Cc1ccc(-n2c(N)c(C(=O)N3CCN(C)CC3)sc2=S)cc1`, -13.5%. With `COc1ccc(/C=N\N=C2/SC(CC(=O)O)C(=O)N2c2ccc(O)cc2)cc1OC` (centres unmarked), the “hERG current change (%, negative = inhibition) at 1uM” value was -0.926%.

Take `CCc1cc2c(NCCC(=O)O)nc(C)nc2s1`: the “hERG current change (%, negative = inhibition) at 1uM” value is 17.4%. To `CCOC(=O)C1=C(CNCCOc2ccc(OC)cc2)NC(=O)NC1c1ccc2c(c1)OCO2` (centres unmarked) belongs 8.12%; to `CCOc1ccccc1N1CCN(C(=S)NCc2ccco2)CC1`, -4.45%. For `COc1ccc(C(OC(=O)c2c(C)noc2C)C(=O)NC2CCCC2)cc1` (centres unmarked) the value was 3.91%. To `C/C(=N\Nc1ccc(Cl)c(Cl)c1)c1ccc(-n2ccnc2)cc1` belongs 10.1%; to `CCOc1ccc(S(=O)(=O)N2CCCCC2)c2ccccc12`, 9.79%.

On to `COc1cc(C(c2c(C)[nH][nH]c2=O)c2c(C)[nH][nH]c2=O)cc(OC)c1OC`, for which the “hERG current change (%, negative = inhibition) at 1uM” value is 9.75%. For `Cc1nc(CS(=O)(=O)c2ccccc2)cc(N2CCOCC2)n1` the value was 1.81%; for `COc1ccc(C(=O)NCc2ccon2)cc1OC1CCN(C(C)C)CC1`, 3.39%. Turning to `CC(/C=C/c1ccccc1)=N\NC(=O)C1CC1(C)c1ccccc1` (centres unmarked), the “hERG current change (%, negative = inhibition) at 1uM” value is reported as -0.841%. `CC(NC(=S)Nc1ccc(Cl)cc1Cl)C(c1cccs1)N1CCCC1` (centres unmarked): the “hERG current change (%, negative = inhibition) at 1uM” value stood at 0.936%. To `COc1cc2c(cc1OC)C(c1ccc([N+](=O)[O-])cc1)NCC2` (centres unmarked) belongs 15.3%; to `CC(O)Cn1c(N2CCCC2)nc2c1c(=O)n(C)c(=O)n2C` (centres unmarked), 13.2%; to `CCC(Sc1nc2ccccc2s1)C(=O)Nc1nnc(C)s1` (centres unmarked), 6.35%. With `COc1ccccc1/C=C/C=N/NC(=O)c1ccncc1`, the “hERG current change (%, negative = inhibition) at 1uM” value is recorded as 5.96%.
